From PubChem BioAssay AID1508642 (National Center for Advancing Translational Sciences (NCATS), 2021)
Hit rate of the full screen: of about 43,000 compounds, about 200 (0.47%) were called active. Not shown: some 12% with an inconclusive outcome. The call rests on the fitted dose curve; in most records, active means well fitted cell-killing curve with a large enough effect; inconclusive means small, poorly fitted or top-dose-only effect, or effect the other way; inactive means flat fitted curve, though single readings scatter. The list shows a part of the results.

Assay: Cell viability qHTS assay in S16 Pmp22-F2sN cells; further: nearly all actives have a fitted effect of over 65% in size
Details: S16 Pmp22-F2sN Schwann cells (luciferase reporters placed in the Pmp22 gene) viability, CellTiter-Glo, 24 h; series mostly up to 57.5 µM; activity change, negative = cytotoxicity: at the top concentration
Procedure, shortened: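 Luminescence from CellTiter-Glo, read by CCD camera after a 15 min room-temperature incubation, served as the viability signal. Reporter Schwann cells (S16 Pmp22-F2sN) had been treated with pin-transferred compounds for 24 h at 37C.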
On the % scale 0 is the no-effect control and ±100 the full control effect.

SMILES | activity change, negative = cytotoxicity
Cc1cccc(C(=O)Nc2sc3c(c2C(=O)Nc2ccccc2)CCC3)c1 | inactive: 7.11%
CCn1cc(C(=O)NCc2ccccc2Cl)c(=O)c2cc(S(=O)(=O)N3CCOCC3)ccc21 | inactive: -0.487%
Cc1ccc2nc(NCCc3ccc(Cl)cc3)c3nncn3c2c1 | inactive: 2.86%
Cc1ccc(C)c(Oc2c(C(F)(F)F)oc3c(CN4CCN(C)CC4)c(O)ccc3c2=O)c1 | inactive: 10.5%
CC(C)c1ccc(Nc2c(-c3ccsc3)nc3ccc(Cl)cn23)cc1 | inactive: 0.218%
CCOC(=O)C1=C(CN(C)Cc2ccccc2)NC(=O)NC1c1ccc(OC(C)C)cc1 (stereo not drawn) | inactive: -14.4%
O=C(Nc1ccccc1[N+](=O)[O-])c1csnn1 | inactive: -10.4%
CCC(=O)C1=C(c2ccccc2)N(C(=O)CC)n2c(nnc2C2CCCCC2)S1 | inactive: 5.98%
CCOc1ccccc1NC(=O)CCS(=O)(=O)c1ccc(OC)cc1 | inactive: 3.55%
CCc1ccc(NC(=O)c2cc(CN3CCOCC3)on2)cc1 | inactive: -1.57%
CCOc1ccc(-n2c(SCC(=O)N3CCCc4ccccc43)nc3c([nH]c4ccccc43)c2=O)cc1 | inactive: 22.4%
Cc1cccc(-n2ccnc2SCC(=O)Nc2cc(C(F)(F)F)ccc2Cl)c1 | inactive: -0.722%
COc1ccc(CCNC(=O)C(=O)Nc2ccc(C)c(C)c2)cc1OC | inactive: 1.75%
CCCCC(=O)Nc1cccc(-c2nc3ccccc3s2)c1 | inactive: 11.8%
CC(C)Oc1ccc(CNC(=O)c2cnc3sc(N4CCCCCC4)nn3c2=O)cc1 | inactive: 4.6%
CC(C)CCn1c(=O)c2sccc2n2c(CCCC(=O)Nc3ccc(F)c(Cl)c3)nnc12 | inactive: -6.32%
O=C(NCc1ccc(F)cc1Cl)c1ccc(CSCc2ccccc2Cl)o1 | inactive: 17.3%
Cc1ccc(NC(=O)c2cc(-c3cccs3)nc3ccccc23)c(C)c1 | inactive: -0.193%
Cc1ccc(N2CCN(C(=O)Nc3cn(CC(C)C)c(=O)c4ccccc34)CC2)c(C)c1 | inactive: -8.71%
CCCN(CCC)CCNC(=O)Cn1cnc2sc(C)c(S(=O)(=O)N3CCN(c4ccccc4OC)CC3)c2c1=O | inactive: 1.88%
CCn1c(C(=O)NCc2ccccc2)cc2sc(Cl)cc21 | inactive: -25.1%
COc1cccc(CNC(=O)c2ccc(CN3CC(=O)N4CCCCC4C3=O)cc2)c1 (stereo not drawn) | inactive: 5.29%
COc1ccccc1/C=C(\C#N)C(=O)NCC1CCCO1 (stereo not drawn) | inactive: -18.2%
CCOc1ccc(/C=C/c2nc(C#N)c(N3CCCCCC3)o2)cc1 | inactive: 4.06%
Cc1ccc(CNC(=O)c2ccc(CSCc3c(F)cccc3Cl)o2)cc1 | inactive: -5.32%

SMILES | activity change, negative = cytotoxicity
COc1ccccc1NC(=O)Cn1c(=O)n(Cc2nc(C)no2)c(=O)c2cc3c(cc21)OCO3 | inactive: 6.46%
Cc1cc(C)n2nc(CNS(=O)(=O)c3ccc(F)cc3)nc2n1 | inactive: -0.391%
CCCOc1ccc(Cn2c(=O)sc3ccccc32)cc1 | inactive: 0.841%
O=C(CSCc1ccc(F)cc1)N1CCc2c([nH]c3ccccc23)C1c1ccccc1 (stereo not drawn) | inactive: -18.9%
CCCCCNc1nc2c(-c3ccccc3)nnn2c2ccccc12 | inactive: 14.7%
CCc1ccc(OC(=O)c2sc3ncn(Cc4cccc(F)c4)c(=O)c3c2C)cc1 | inactive: 0.55%
Cc1cccc(N2CCN(C(=O)c3ccc4c(c3)N(Cc3cccc(Cl)c3)C(=O)c3ccccc3S4=O)CC2)c1C (stereo not drawn) | inactive: -3.67%
Cc1ccc(-c2nc(SCC(=O)Nc3cc(C)on3)c3c(=O)n(C)c(=O)n(C)c3n2)cc1 | inactive: -9.63%
COc1ccccc1NC(=O)c1c(NC(=O)c2cccs2)sc2c1CCC(C(C)(C)C)C2 (stereo not drawn) | inactive: -2.08%
Oc1c(C(c2ccc(Cl)cc2Cl)N2CCCC2)sc2nc(-c3ccco3)nn12 (stereo not drawn) | inactive: 7.23%
CCOc1ccc(CCNC(=O)CCSCc2cccc(Cl)c2)cc1OCC | inactive: 1.58%
O=C(COc1ccc(F)cc1)OCc1cc(=O)n2nc(C3CC3)sc2n1 | inactive: -7.03%
Cc1ccc(CCNC(=O)C2CCCN(S(=O)(=O)c3ccc4c(c3)oc(=O)n4C)C2)cc1 (stereo not drawn) | inactive: 4.9%
CCc1ccc(-n2nc(C)c3c(C)cc(=O)n(CC(=O)N(CC)Cc4ccccc4)c32)cc1 | inactive: -0.859%
CN(C)c1ccc(NC(=O)C2(c3cccs3)CCOCC2)cc1 | inactive: -7.02%
O=C(Nc1cc(Cl)ccc1O)c1cc2nc(-c3ccc4c(c3)OCO4)cc(C(F)(F)F)n2n1 | inactive: -0.17%
CCc1ccccc1NC(=O)COC(=O)c1cn(CC)c2nc(C)ccc2c1=O | inactive: 18.2%
CCCCOC(=O)c1ccc(Nc2nc3ccc(C)cc3n3cnnc23)cc1 | inactive: 16.8%
COc1ccc(N2CC(C(=O)Nc3ccccc3-c3nc(-c4ccc(C)cc4)no3)CC2=O)cc1 (stereo not drawn) | inactive: 2.54%
CCCSc1nc2c(c(=O)[nH]1)C(c1ccc(O)c(OCC)c1)CC(=O)N2 (stereo not drawn) | inactive: -11.9%
COc1ccc(C(=O)NCCc2nc3ccccc3[nH]2)cc1 | inactive: 0.867%
CC(C)(C)c1ccc(OCc2cc(=O)n3c4c(sc3n2)CCCC4)cc1 | inactive: 12.3%
Cc1ccccc1CSCc1ccc(C(=O)NCCc2ccccc2)o1 | inactive: 11.3%
COc1cccc(NC(=O)c2oc3ccc(S(=O)(=O)N4CCC5(CC4)OCCO5)cc3c2C)c1 | inactive: -27.6%
CCOc1ccc(C(CC(=O)Nc2ccc(C(=O)OC)cc2)N2Cc3ccccc3C2=O)cc1OC (stereo not drawn) | inactive: 9.21%

SMILES | activity change, negative = cytotoxicity
CN(C)c1ccc(CNS(=O)(=O)c2csc(C(N)=O)c2)cc1 | inactive: -25%
O=C(NCC(c1ccco1)S(=O)(=O)c1cccs1)c1ccc(C(F)(F)F)cc1 (stereo not drawn) | inactive: 0.523%
COc1cccc(NC(=O)Nc2cc(-c3cn4cccnc4n3)ccc2OC)c1 | inactive: 2.54%
CCn1cc2nc(SCc3ccccc3)n(Cc3ccc(C)cc3)c(=O)c2n1 | inactive: -25.1%
Clc1ccc(-c2noc3ncnc(N4CCCCC4)c23)cc1 | inactive: -20.7%
COc1ccc(C)cc1NC(=O)c1cc(S(=O)(=O)NCCC2=CCCCC2)ccc1F | inactive: 5.45%
Cc1ccccc1NC(=O)CSc1nc2ccc(NC(=O)c3ccco3)cc2s1 | inactive: -4.2%
O=C(CSc1nc(-c2ccccc2)no1)N1CCN(c2ccc(F)cc2)CC1 | inactive: 0.668%
COc1ccc(C2=NS(=O)(=O)N(C)C(C(=O)NC(C)c3ccccc3)=C2)cc1OC (stereo not drawn) | inactive: -23.2%
CC1=C(C(=O)OC2CCCC2)C(c2ccc(Cl)cc2)CC(=O)N1 (stereo not drawn) | inactive: 27.8%
Cc1cc(C)cc(NC(=O)CN(c2cccc(C)c2C)S(=O)(=O)c2ccccc2)c1 | inactive: 0.48%
COc1ccc2c(CNCCc3ccccc3OC)c(C(=O)O)n(Cc3ccc(F)cc3Cl)c2c1 | inactive: -0.824%
CSc1cccc(NC(=O)N2CCN(S(=O)(=O)c3ccc4c(ccn4C)c3)CC2)c1 | inactive: 2.86%
Cc1cccc(NC(=O)C2CCN(S(=O)(=O)c3c(C)noc3/C=C/c3ccco3)CC2)c1C | inactive: -9.93%
COc1cccc(N2C(=O)CSC23C(=O)N(Cc2ccccc2F)c2ccccc23)c1 (stereo not drawn) | inactive: 12.2%
CCC(=O)N1CCc2cc(Br)cc(S(=O)(=O)N3CCN(c4cccc(Cl)c4)CC3)c21 | inactive: 5.47%
O=C(OCC1CCCO1)c1ccc2c(c1)N(Cc1cccc(F)c1)C(=O)c1ccccc1S2(=O)=O (stereo not drawn) | inactive: 10.4%
Cc1nc2c(-c3ccc(F)cc3)c(C)nn2c(C)c1CCC(=O)NCc1cccc(Cl)c1 | inactive: 0.276%
CCOc1cccc(C2c3[nH]c4ccccc4c3CCN2C(=O)Cc2cccc(OCC)c2OCC)c1 (stereo not drawn) | inactive: 0.46%
CC1CCc2nc(NC(=O)Cc3ccc(Cl)cc3)sc2C1 (stereo not drawn) | inactive: 10.4%
Cc1cc2c(cc1S(=O)(=O)CCC(=O)N(C)Cc1ccccc1)OCC(=O)N2 | inactive: 5.78%
O=C(c1cnc(N2CCCCC2)c2ccccc12)N1CCN(c2ccc(F)cc2)CC1 | inactive: -25%
Fc1ccc(Nc2nc(-c3ccc(F)cc3)c3c(n2)-c2ccccc2OC3)cc1 | inactive: 0.829%
COc1cccc(C(=O)Nc2ccc3nc(SCC(=O)N4CCc5ccccc54)sc3c2)c1 | inactive: 0.563%
Cc1sc2c(c1C)c(=O)n(-c1ccc(Cl)cc1)c(=O)n2CC(=O)c1ccccc1 | inactive: 9.43%

SMILES | activity change, negative = cytotoxicity
CCOC(=O)C(C)Nc1ncnc2onc(C)c12 (stereo not drawn) | inactive: 4.2%
CSc1nc(C)cc(Nc2cccc(C(=O)O)c2)n1 | inactive: 0.645%
Cc1ccc(-c2nc3scc(CCNS(=O)(=O)c4c(C)noc4C)n3n2)cc1 | inactive: -3.4%
COc1cccc(CNC(=O)c2ccc3c(c2)sc2nc(-c4ccccc4)cn23)c1OC | inactive: 3.11%
O=c1[nH]c2ccc(S(=O)(=O)Nc3cc(Cl)ccc3O)cc2o1 | inactive: -13.3%
NS(=O)(=O)c1ccc(CCNC(=O)CCn2c(=O)c3cccn3c3cccnc32)cc1 | inactive: 22.4%
Cc1cc(Br)ccc1NC(=O)C(NS(=O)(=O)c1cccs1)c1ccccc1 (stereo not drawn) | inactive: 1.44%
COc1ccc(Cl)cc1NC(=O)c1cc2nc(-c3ccc(C)cc3)cc(C(F)(F)F)n2n1 | inactive: 7.77%
Cc1cc(F)ccc1NC(=O)CN1C(=O)CCc2cc(S(=O)(=O)N3CCOCC3)ccc21 | inactive: -0.636%
CCOC(=O)C1=C(CN2CCCCC2)NC(=O)NC1c1ccc(OC)cc1 (stereo not drawn) | inactive: -5.6%
Cc1cccc(NC(=O)c2ccc(F)c(S(=O)(=O)N3CCN(c4ccc(F)cc4)CC3)c2)c1 | inactive: -22.2%
CCOc1ccccc1NC(=O)c1cn(C2CCCCC2)c(=O)c2c1c1ccccc1n2C | inactive: 0.158%
COc1ccc(CCNC(=O)CCn2c(=O)c3cccn3c3ccc(F)cc32)cc1OC | inactive: -0.605%
Cc1ccc(-c2cn3c(n2)sc2cc(C(=O)NC4CCCCC4)ccc23)cc1 | inactive: -4.64%
CC1(C)O[C@H]2[C@@H](O1)[C@@H](C(=O)Nc1cc(F)ccc1F)O[C@@H]1OC(C)(C)O[C@@H]12 | inactive: 3.91%
O=C(O)CCSc1nnc(-c2ccc(Cl)cc2Cl)o1 | inactive: -3.3%
CCOC(=O)c1ccc(CN(Cc2ccc(Cl)cc2Cl)S(=O)(=O)c2cccc(Cl)c2)cc1 | inactive: 7.83%
Cc1cc(-c2ccc(C)c(S(=O)(=O)N(C(C)C)C3CCCCC3)c2)on1 | inactive: -5.41%
CC(=O)c1ccc(NC(=O)c2nn(C)c3c2CS(=O)(=O)c2ccccc2-3)cc1 | inactive: 2.5%
COc1ccc(-c2nc3n(n2)C(c2cccc(C)c2)C(C(N)=O)=C(C)N3)cc1OC (stereo not drawn) | inactive: -1.91%
Cc1ccc2nc(N(Cc3cccnc3)C(=O)CCc3ccccc3)sc2c1 | inactive: 2.33%
Cc1cccc(-c2cc(C(=O)O)c3c(-c4ccc(F)cc4)[nH]nc3n2)c1 | inactive: 0.286%
O=S(=O)(c1ccc(Br)cc1)N1CCn2cccc2C1c1ccc(Br)cc1 (stereo not drawn) | inactive: -9.06%
